{"source": "the RNAGym collection of RNA variant scans (doi:10.1073/pnas.2313332121)", "parents": {"B1": {"name": "TPR 5TU (parent)", "chain": "GGAUCUUCUCGAUCUAACAAAAAAGACAAAUCUGCCACAAAGCUUGAGAGCAUCUUCGGAUGCAGAGGCGGCAGCCUUCGGUGGCGCGAUAGCGCCAACGUUCUCAACUAUGACACGCAAAACGCGUGCUCCGUUGAAUGGAGUUUAUCAUG"}}, "note": "This sample is rich in variants without activity."}
{"variants_of": "B1", "test": "polymerase ribozyme fitness, log enrichment relative to wild type (log ratio); higher = more active; in vitro selection for triplet polymerase activity", "procedure,_shortened": "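Input and output libraries were sequenced on Illumina after a single in vitro selection round, run in triplicate on PCR-built, transcribed mutant libraries of each subunit of a heterodimeric triplet polymerase ribozyme. Selection annealed libraries to a biotinylated primer, the partner subunit and triplets, incubated them frozen at −7 °C, then gel-excised extended constructs for streptavidin-bead capture and RT-PCR. Genotypes with ≥10 input reads and ≥1 read per output were kept. Fitness is the logarithm, taken in base 2, of genotype enrichment divided by wild-type enrichment, using inverse-variance-weighted replicate averages.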"}
{"variant": "G143A U151G", "polymerase ribozyme fitness (log ratio)": "≤ -4.2"}
{"variant": "C105A A137C U139G", "polymerase ribozyme fitness (log ratio)": "≤ -4.2"}
{"variant": "U109G U139C", "polymerase ribozyme fitness (log ratio)": "≤ -4.2"}
{"variant": "C116U C118A U139G", "polymerase ribozyme fitness (log ratio)": 0.554}
{"variant": "U127G A137U", "polymerase ribozyme fitness (log ratio)": -4.19}
{"variant": "C103A U148C", "polymerase ribozyme fitness (log ratio)": "≤ -4.2"}
{"variant": "A137G U144A", "polymerase ribozyme fitness (log ratio)": -3.01}
{"variant": "C103G U111C C125A", "polymerase ribozyme fitness (log ratio)": "≤ -4.2"}
{"variant": "C99U G100C U139C", "polymerase ribozyme fitness (log ratio)": "≤ -4.2"}
{"variant": "C123U", "polymerase ribozyme fitness (log ratio)": 0.225}
{"variant": "U111C G117C", "polymerase ribozyme fitness (log ratio)": "≤ -4.2"}
{"variant": "U109G A120U G140A U145G U151C", "polymerase ribozyme fitness (log ratio)": "≤ -4.2"}
{"variant": "U134A U148G", "polymerase ribozyme fitness (log ratio)": "≤ -4.2"}
{"variant": "U102C U148C", "polymerase ribozyme fitness (log ratio)": -3.19}
{"variant": "U134A G141U", "polymerase ribozyme fitness (log ratio)": -2.41}
{"variant": "C118U G140U", "polymerase ribozyme fitness (log ratio)": -3.11}
{"variant": "U127A A150C", "polymerase ribozyme fitness (log ratio)": "≤ -4.2"}
{"variant": "A110G C129U U144C", "polymerase ribozyme fitness (log ratio)": "≤ -4.2"}
{"variant": "U102G G124C G133A A137G G143U", "polymerase ribozyme fitness (log ratio)": "≤ -4.2"}
{"variant": "G100A U102G", "polymerase ribozyme fitness (log ratio)": "≤ -4.2"}
{"variant": "A110U U111G A115C A142U", "polymerase ribozyme fitness (log ratio)": "≤ -4.2"}
{"variant": "G124A G133U U139G G140U C149U", "polymerase ribozyme fitness (log ratio)": "≤ -4.2"}
{"variant": "U111A G140A", "polymerase ribozyme fitness (log ratio)": "≤ -4.2"}
{"variant": "A106G A110U", "polymerase ribozyme fitness (log ratio)": -3.42}
{"variant": "G141A", "polymerase ribozyme fitness (log ratio)": 0.689}
{"variant": "G141U", "polymerase ribozyme fitness (log ratio)": 1.61}
{"variant": "G141C", "polymerase ribozyme fitness (log ratio)": -0.0848}
{"variant": "C99U C103A G128A G136U U148G", "polymerase ribozyme fitness (log ratio)": "≤ -4.2"}
{"variant": "G126U C132U", "polymerase ribozyme fitness (log ratio)": -0.717}
{"variant": "A107C C118A A120U U139A U145A", "polymerase ribozyme fitness (log ratio)": "≤ -4.2"}
{"variant": "A107U C132G G143C", "polymerase ribozyme fitness (log ratio)": "≤ -4.2"}
{"variant": "C103G G128C", "polymerase ribozyme fitness (log ratio)": "≤ -4.2"}
{"variant": "A122U G141C", "polymerase ribozyme fitness (log ratio)": 0.115}
{"variant": "C105G U151G", "polymerase ribozyme fitness (log ratio)": "≤ -4.2"}
{"variant": "A122G G126U U134G U148A", "polymerase ribozyme fitness (log ratio)": "≤ -4.2"}
{"variant": "G112A U139A G140U", "polymerase ribozyme fitness (log ratio)": "≤ -4.2"}
{"variant": "A142G A147U", "polymerase ribozyme fitness (log ratio)": -0.49}
{"variant": "A113G C116A G117C", "polymerase ribozyme fitness (log ratio)": "≤ -4.2"}
{"variant": "C99G C149U", "polymerase ribozyme fitness (log ratio)": -1.74}
{"variant": "A110U U127A", "polymerase ribozyme fitness (log ratio)": -4.06}
{"variant": "A107G U127G", "polymerase ribozyme fitness (log ratio)": "≤ -4.2"}
{"variant": "A107G U127A", "polymerase ribozyme fitness (log ratio)": "≤ -4.2"}
{"variant": "U101C C105U G136U G140C G152A", "polymerase ribozyme fitness (log ratio)": "≤ -4.2"}
{"variant": "C108U C132A U139A", "polymerase ribozyme fitness (log ratio)": "≤ -4.2"}
{"variant": "A113U G124U", "polymerase ribozyme fitness (log ratio)": -2.07}
{"variant": "G124U U130G A138C A142G", "polymerase ribozyme fitness (log ratio)": "≤ -4.2"}
{"variant": "G100U U101A U102C G141U A142G", "polymerase ribozyme fitness (log ratio)": "≤ -4.2"}
{"variant": "U102G C129A", "polymerase ribozyme fitness (log ratio)": "≤ -4.2"}
{"variant": "U145G U151G", "polymerase ribozyme fitness (log ratio)": -4.07}
{"variant": "G124C C125G U148A", "polymerase ribozyme fitness (log ratio)": "≤ -4.2"}
{"variant": "C132U G152U", "polymerase ribozyme fitness (log ratio)": -2.75}
{"variant": "G100C A110C A150C", "polymerase ribozyme fitness (log ratio)": "≤ -4.2"}
{"variant": "G133A U134G", "polymerase ribozyme fitness (log ratio)": -2.81}
{"variant": "C116U U134C", "polymerase ribozyme fitness (log ratio)": -0.00566}
{"variant": "U104G G126A", "polymerase ribozyme fitness (log ratio)": 0.207}
{"variant": "U111A A120G C129G A138C", "polymerase ribozyme fitness (log ratio)": "≤ -4.2"}
{"variant": "U139A U144A", "polymerase ribozyme fitness (log ratio)": -4.15}
{"variant": "U102C A120U G140C", "polymerase ribozyme fitness (log ratio)": -3.56}
{"variant": "C114U C131U", "polymerase ribozyme fitness (log ratio)": -1.64}
{"variant": "A142G U146C", "polymerase ribozyme fitness (log ratio)": -3.25}
{"variant": "U104G A119C C123U", "polymerase ribozyme fitness (log ratio)": 0.501}
{"variant": "G117C A120G", "polymerase ribozyme fitness (log ratio)": 0.308}
{"variant": "C99G G124A G141U", "polymerase ribozyme fitness (log ratio)": -0.199}
{"variant": "G112A", "polymerase ribozyme fitness (log ratio)": -1.96}
{"variant": "G112C", "polymerase ribozyme fitness (log ratio)": -2.68}
{"variant": "G112U", "polymerase ribozyme fitness (log ratio)": -2.77}
{"variant": "G128U U144C", "polymerase ribozyme fitness (log ratio)": -3.96}
{"variant": "G100C G136U U146G", "polymerase ribozyme fitness (log ratio)": "≤ -4.2"}
{"variant": "U104C U135G", "polymerase ribozyme fitness (log ratio)": -3.31}
{"variant": "C132U U135A", "polymerase ribozyme fitness (log ratio)": -2.46}
{"variant": "A106G", "polymerase ribozyme fitness (log ratio)": 0.398}
{"variant": "A106U", "polymerase ribozyme fitness (log ratio)": -0.23}
{"variant": "A106C", "polymerase ribozyme fitness (log ratio)": -0.467}
{"variant": "A115C A142G A150U", "polymerase ribozyme fitness (log ratio)": -3.13}
{"variant": "A107U A110U C114U", "polymerase ribozyme fitness (log ratio)": "≤ -4.2"}
{"variant": "G136U U144G", "polymerase ribozyme fitness (log ratio)": -3.29}
{"variant": "U101C A150G", "polymerase ribozyme fitness (log ratio)": -1.59}
{"variant": "A122U C149U", "polymerase ribozyme fitness (log ratio)": -0.616}
{"variant": "C118G G141A", "polymerase ribozyme fitness (log ratio)": -0.0985}
{"variant": "G124A C125G", "polymerase ribozyme fitness (log ratio)": 0.356}
{"variant": "C125G A138C", "polymerase ribozyme fitness (log ratio)": "≤ -4.2"}
{"variant": "G124A U148G", "polymerase ribozyme fitness (log ratio)": -3.69}
{"variant": "C114G A119G", "polymerase ribozyme fitness (log ratio)": -2.84}
{"variant": "U104G U135C G143C", "polymerase ribozyme fitness (log ratio)": -3.79}
{"variant": "C99U G136U", "polymerase ribozyme fitness (log ratio)": -2.25}
{"variant": "G133U G136C", "polymerase ribozyme fitness (log ratio)": "≤ -4.2"}
{"variant": "A119G U146A", "polymerase ribozyme fitness (log ratio)": -0.399}
{"variant": "G124U G143U U148G", "polymerase ribozyme fitness (log ratio)": "≤ -4.2"}
{"variant": "A115U U134C", "polymerase ribozyme fitness (log ratio)": -1.19}
{"variant": "C125A A147U", "polymerase ribozyme fitness (log ratio)": -0.189}
{"variant": "C129G U134G", "polymerase ribozyme fitness (log ratio)": -3.81}
{"variant": "U127G G136A", "polymerase ribozyme fitness (log ratio)": -2.89}
{"variant": "C105G U134C G140U", "polymerase ribozyme fitness (log ratio)": -4.18}
{"variant": "G126U", "polymerase ribozyme fitness (log ratio)": 0.31}
{"variant": "G126A", "polymerase ribozyme fitness (log ratio)": 0.682}
{"variant": "G126C", "polymerase ribozyme fitness (log ratio)": 1.28}
{"variant": "G133C U134A", "polymerase ribozyme fitness (log ratio)": "≤ -4.2"}
{"variant": "U104G C131A G133C U144A", "polymerase ribozyme fitness (log ratio)": "≤ -4.2"}
{"variant": "U139C U144A", "polymerase ribozyme fitness (log ratio)": -3.36}
{"variant": "C114A U144G", "polymerase ribozyme fitness (log ratio)": -3.71}
{"variant": "C108G C131G U139C U146G", "polymerase ribozyme fitness (log ratio)": "≤ -4.2"}
{"variant": "U109G G140U", "polymerase ribozyme fitness (log ratio)": -3.76}
{"variant": "G124C C149G", "polymerase ribozyme fitness (log ratio)": "≤ -4.2"}
{"variant": "U127C C131A G152U", "polymerase ribozyme fitness (log ratio)": -3.91}
{"variant": "G126A C132U A142C", "polymerase ribozyme fitness (log ratio)": "≤ -4.2"}
{"variant": "A115G G141A", "polymerase ribozyme fitness (log ratio)": -0.426}
{"variant": "C108G A122C", "polymerase ribozyme fitness (log ratio)": "≤ -4.2"}
{"variant": "A106G A115U", "polymerase ribozyme fitness (log ratio)": -1.05}
{"variant": "A122G C125A U134G", "polymerase ribozyme fitness (log ratio)": -2.92}
{"variant": "A119C U139C", "polymerase ribozyme fitness (log ratio)": -3.46}
{"variant": "A113C G141C", "polymerase ribozyme fitness (log ratio)": "≤ -4.2"}
{"variant": "A121C C125U G143U", "polymerase ribozyme fitness (log ratio)": -2.41}
{"variant": "A119U U144A", "polymerase ribozyme fitness (log ratio)": -0.171}
{"variant": "U134A A142C", "polymerase ribozyme fitness (log ratio)": -2.66}
{"variant": "C99G G117C A122G", "polymerase ribozyme fitness (log ratio)": -1.51}
{"variant": "C105G A119G U151G", "polymerase ribozyme fitness (log ratio)": "≤ -4.2"}
{"variant": "A106G A142C", "polymerase ribozyme fitness (log ratio)": -0.922}
{"variant": "C118G A150G", "polymerase ribozyme fitness (log ratio)": -2.14}
{"variant": "C116U A119U", "polymerase ribozyme fitness (log ratio)": -0.298}
{"variant": "C116U A119G", "polymerase ribozyme fitness (log ratio)": -0.704}
{"variant": "C103A G117U", "polymerase ribozyme fitness (log ratio)": -0.489}
{"variant": "C114U U148G", "polymerase ribozyme fitness (log ratio)": -3.06}
{"variant": "C99U A150C", "polymerase ribozyme fitness (log ratio)": "≤ -4.2"}
{"variant": "A122C C149U", "polymerase ribozyme fitness (log ratio)": -1.16}
{"variant": "A110U G140C", "polymerase ribozyme fitness (log ratio)": "≤ -4.2"}
{"variant": "A115U G141C", "polymerase ribozyme fitness (log ratio)": -3.37}
{"variant": "A138G", "polymerase ribozyme fitness (log ratio)": -1.9}
{"variant": "A138C", "polymerase ribozyme fitness (log ratio)": -3.67}
{"variant": "A138U", "polymerase ribozyme fitness (log ratio)": -3.87}
{"variant": "A121U C125U G143C U146C", "polymerase ribozyme fitness (log ratio)": -3.38}
{"variant": "C108G G126A A137U", "polymerase ribozyme fitness (log ratio)": "≤ -4.2"}
{"variant": "G128U U130C A138G", "polymerase ribozyme fitness (log ratio)": "≤ -4.2"}
{"variant": "U101A U109G C118U C125G A138G G141A", "polymerase ribozyme fitness (log ratio)": "≤ -4.2"}
{"variant": "U135A G143A A147G", "polymerase ribozyme fitness (log ratio)": "≤ -4.2"}
{"variant": "U135A G140C G143A", "polymerase ribozyme fitness (log ratio)": "≤ -4.2"}
{"variant": "A107G U127C A138C", "polymerase ribozyme fitness (log ratio)": "≤ -4.2"}
{"variant": "C103A A142G", "polymerase ribozyme fitness (log ratio)": -2.71}
{"variant": "C118A U144A", "polymerase ribozyme fitness (log ratio)": 0.0258}
